Source: PubChem BioAssay AID1645882 (National Center for Advancing Translational Sciences (NCATS), 2021)
About 120 (0.75%) of roughly 16,000 compounds were called active. Inconclusive results (about 4%) are left out. Calls follow the shape of the dose curve; as a rule, active = well fitted inhibition curve with a large enough effect; inconclusive = small, poorly fitted or top-dose-only effect; inactive = no such curve, though single readings can be large or run the other way. Some of the results follow. Where a SMILES comes first, the peptide text is derived from it. Bridges are numbered along the chain shown (N, C = ends). [ ]: non-standard residue; d: D form. hArg = N=C(N)NCCCC[C@H](N)C(=O)O; pGlu = O=C1CC[C@@H](C(=O)O)N1; Thz = O=C(O)[C@@H]1CSCN1; Mpa = O=C(O)CCS

What follows are compounds tested against Rap guanine nucleotide exchange factor 3 (Homo sapiens) (UniProt O95398) (assay: Validation qHTS for antagonist of cAMP-regulated guanine nucleotide exchange factor 3 (EPAC1)). Details: EPAC1 Rap1B-BODIPY-GDP exchange, fluorescence; series mostly up to 150 µM; activity change, negative = inhibition: at the top concentration.
UniProt O95398, sequence (O95398 whole entry, looked up): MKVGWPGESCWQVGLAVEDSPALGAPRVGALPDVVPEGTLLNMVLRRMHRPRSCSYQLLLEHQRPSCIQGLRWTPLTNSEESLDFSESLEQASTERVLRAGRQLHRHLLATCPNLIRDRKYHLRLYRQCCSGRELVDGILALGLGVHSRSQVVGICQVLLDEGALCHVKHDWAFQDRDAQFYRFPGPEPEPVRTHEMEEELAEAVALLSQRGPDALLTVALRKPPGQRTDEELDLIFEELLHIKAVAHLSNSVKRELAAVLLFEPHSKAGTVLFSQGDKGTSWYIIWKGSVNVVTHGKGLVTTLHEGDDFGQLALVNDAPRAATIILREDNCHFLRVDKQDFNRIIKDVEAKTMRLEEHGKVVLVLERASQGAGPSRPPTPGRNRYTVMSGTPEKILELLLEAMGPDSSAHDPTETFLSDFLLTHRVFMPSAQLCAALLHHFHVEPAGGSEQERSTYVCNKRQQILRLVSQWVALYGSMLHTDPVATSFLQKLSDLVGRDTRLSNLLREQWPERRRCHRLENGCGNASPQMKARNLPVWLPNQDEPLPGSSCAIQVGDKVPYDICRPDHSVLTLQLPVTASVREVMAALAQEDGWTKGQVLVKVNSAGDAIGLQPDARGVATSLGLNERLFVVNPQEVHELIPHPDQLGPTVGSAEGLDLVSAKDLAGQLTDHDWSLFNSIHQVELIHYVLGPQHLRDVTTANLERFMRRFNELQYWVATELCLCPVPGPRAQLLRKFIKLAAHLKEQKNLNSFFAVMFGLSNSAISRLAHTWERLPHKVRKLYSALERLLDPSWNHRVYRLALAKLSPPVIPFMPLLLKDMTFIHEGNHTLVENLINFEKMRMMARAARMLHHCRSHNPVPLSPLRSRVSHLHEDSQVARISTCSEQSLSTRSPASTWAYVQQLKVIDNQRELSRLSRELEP
Procedure, shortened: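 Nucleotide exchange followed as fluorescence loss when BODIPY-GDP leaves Rap1B (480 nm excitation, 540 nm emission), read at 5 min intervals over 30 min. Reaction: 100 nM EPAC1, 250 nM RAP1B-BODIPY-GDP, 50 uM GDP; ATA and DMSO define normalization.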
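Also: plate controls were DMSO for no effect and ATA control for full effect; nearly all actives have a fitted effect of over 75% in size.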

Activity change, negative = inhibition, inactive:
CC1=NS(=O)(=O)c2cc(Cl)ccc2N1
COc1ccc(Oc2ncc3nc(-c4ccc(Cl)cc4)c(=O)n(C[C@H]4CCCO4)c3n2)cc1 -4.75%
N#CCCn1c(=O)c(-c2cccs2)nc2cnc(Oc3ccccc3)nc21 9.84%
CN1N=C(C(=O)N2CCOc3ccc(CN4CCCC(C(=O)c5cccnc5)C4)cc3C2)CCC1=O (stereo not given) 10.3%
COc1cccc(-c2cc(NCc3cnc(C)cn3)ncn2)c1 -2.13%
Cc1cccc(CN2Cc3cccc4c3[C@H](C=CC4)CC2=S)c1 0.327%
NC(=O)c1ccc[n+]([C@@H]2OC(COP(=O)([O-])OP(=O)(O)OCC3OC(n4cnc5c(N)ncnc54)C(O)C3O)C(O)C2O)c1 (stereo not given in full) 8.29%
COc1cc2ncnc(Nc3cccc(Br)c3)c2cc1OC 0.988%
CN(C)CCC(c1ccc(Br)cc1)c1ccccn1 (stereo not given)
CCCCNC(=O)[C@@H]1CC=C[C@@H]2CCN(Cc3ccc(OC)c(OC)c3)C(=O)[C@@H]21 -0.608%
Cc1ccnc2ncccc12 6.65%
O=C1CC[C@@H](C(=O)N2CSC[C@H]2C(=O)O)N1 ([pGlu]-[Thz]-OH) 3.7%
COc1ccccc1N1CCN(CCCNc2c(C)c(=O)n(C)c(=O)n2C)CC1
c1ccc(-c2ccc(C(c3ccccc3)n3ccnc3)cc2)cc1 (stereo not given) -11.3%
Cc1ccc(S(=O)(=O)NCc2ccccc2)cc1 -1.88%
O=C(O)/C=C/C(O)c1ccc(Cl)cc1 (stereo not given)
C[C@]12CCC(=O)C=C1CC[C@@H]1[C@@H]2CC[C@@]2(C)[C@H]1CC[C@]2(O)C(=O)CO
c1ccc(C(c2ccccc2)N2CCCC3(CCNCC3)C2)cc1 16.4%
COC(=O)C1=C(C)NC(C)=C(C(=O)OC(C)(C)CN(C)CCC(c2ccccc2)c2ccccc2)C1c1cccc([N+](=O)[O-])c1 (stereo not given)
CC(C)Cc1nc2cc(NS(=O)(=O)N(C)C)cc(C(=O)N3CCN(c4ccccc4)CC3)c2n1C -4.51%
COc1cc(/C=C/C(=O)/C=C(O)/C=C/c2ccc(O)c(OC)c2)ccc1O
Nc1nc2c(ncn2C2OC(COC(=O)c3ccccc3)C(OC(=O)c3ccccc3)C2OC(=O)c2ccccc2)c(=O)[nH]1 (stereo not given) -9.68%
Cc1cccc2c(Nc3ccc4c(c3)OCO4)nc(CN3CCC(N4CCCCC4)CC3)nc12 -3.48%
COc1ccc(-n2c(=O)c(-c3ccccc3)nc3cncnc32)cc1 10.3%
CN1CC(O)C(O)C(O)C1CO (stereo not given) 6.51% [at 75.8 µM]
COc1cccc(OC)c1CN1CCC2(CCC(CNC(=O)c3ccn(C)n3)O2)CC1 (stereo not given) 5.38%
CC(=O)N[C@H](C(=O)O)C(C)(C)SN=O -0.498% [at 75.8 µM]
N#Cc1ccc2c(c1)N(CCCN1CCC(O)CC1)c1ccccc1S2 19%
Cn1c(=O)c(CCc2ccccc2)nc2cnc(Nc3ccccc3)nc21 14.9%
CCC1(c2ccccc2)C(=O)NCNC1=O
Cc1oc(-c2ccccc2NC(=O)C2CCC2)nc1CNC(=O)c1c(F)ccc(F)c1F 8.49%
COc1cc([C@@H]2c3cc4c(cc3[C@@H](O[C@@H]3O[C@H]5CO[C@@H](C)O[C@@H]5[C@@H](O)[C@H]3O)[C@@H]3COC(=O)[C@@H]23)OCO4)cc(OC)c1O 4.04%
COc1cc(CN2c3ccc(Br)cc3C(=O)CS2(=O)=O)cc(OC)c1 11.2%
COc1cccc(Cn2c(=O)c(-c3ccc(Cl)cc3)nc3cncnc32)c1 6.41%
O=[N+]([O-])c1ccc(CSc2ncnc3c2ncn3C2OC(CO)C(O)C2O)cc1 (stereo not given) 19.3%
Clc1ccc(-n2cccc2CN2CCOc3ccc(CN4CCOCC4)cc3C2)nc1 12.8%
COc1cc(Nc2c(C#N)cnc3cc(OCCCN4CCN(C)CC4)c(OC)cc23)c(Cl)cc1Cl 14.9%
COCCNC(=O)c1cn(C2CCN(C3CCCC3)CC2)nn1 10.1%
C[C@@]12CC(=O)C3=C(CCCC3=O)N1CCc1ccccc12 4.48%
COc1ccc(CNc2ncncc2-c2ccccc2CN(C)C)c(OC)c1 -2.15%
Cc1noc(C)c1-c1cc(NC2CC2)ncn1 12.2%
O=C(NCc1ccncc1)c1cnn(-c2nccc(-c3cccs3)n2)c1C1CC1 8.39%
Oc1ccc2c(c1)OCC1c3cc4c(cc3OC21)OCO4 (stereo not given) 13.4%
COc1ccc(C)cc1N1C(=O)[C@@H]2C[C@H]1CN2Cc1cccc(OC)c1O 2.82%
c1ccc2cc(C3=NCCN3)ccc2c1 18.7%
CC(=O)NCCNc1ccnc(-c2ccccc2C)n1 -2.3%
COC(=O)C[C@H]1c2ccc(C(F)(F)F)cc2S(=O)(=O)N1Cc1ccccc1 -14.3%
Cc1cnc(-n2ncc(C(=O)NC(C)(C)CO)c2-c2cccs2)nc1-c1ccc(F)cc1 9.12%
COc1ccc(SC[C@H](Cc2ccccc2)N2CC[C@@H](NC(=O)OCc3ccccc3)CCC2=O)cc1 -8.55%
COC(=O)[C@@H]1C[C@@H](NC(=O)c2cnsn2)CN1Cc1ccc(Cl)cc1 9.41%
O=C(c1csnn1)N1CCC2(CCCN(c3ccc(-c4ccccc4)cc3)C2)CC1 17.6%
COc1ccc(-n2c(=O)cnc3cnc(N4CCNCC4)nc32)cc1 21.2%
Cc1cc(C)c2cccnc2c1O -17.1%
COc1cc2c(C=O)c3c4c(cc(OC)c(OC)c4c2cc1OC)CCN3C -21.5%
CN1CCN(c2cc(-c3ccc(N(C)C)cc3)ncn2)CC1 8.42%
CN1[C@@H]2CCC[C@@H]1CC(NC(=O)c1nn(C)c3ccccc13)C2 (stereo not given in full) 27.2%
COc1ccccc1-c1nccc(NCc2cccnc2)n1 12.8%
CC1CCN(CC[C@H]2CCCN2S(=O)(=O)c2cccc(O)c2)CC1
c1cncc(CNc2ncncc2-c2ccc3c(c2)OCO3)c1 18.5%
CC(C)C(N)C(=O)OCCOCn1cnc2c(=O)[nH]c(N)nc21 (stereo not given) 1.48%
Cc1cnc(CNc2cc(-c3c(C)noc3C)ncn2)cn1 6.48%
CC(=O)N1CCC2(CCCN(C(=O)Nc3cccc(F)c3)C2)CC1 8.69%
COc1ccccc1-c1nc(NC2CC2)c2ccccc2n1 3.26%
O=c1c(-c2cc(F)cc(F)c2)nc2cnc(N3CCNCC3)nc2n1-c1ccccc1 2.96%
O=c1[nH]cnc2nc[nH]c12 11.5%
Nc1ccc2nc[nH]c2c1 18.1%
CC(=O)OC1CC[C@]2(C)C(=CCC3C4CCC(C(C)CCCC(C)C)[C@]4(C)CCC32)C1 (stereo not given in full) 17.2%
CC(C)(C)c1ccc(O)c(O)c1 33.8% [at 320 µM]
C[C@@](Cc1ccc(O)c(O)c1)(NN)C(=O)O
CC(NC(=O)c1cccnc1)c1nnc2n1CCN(Cc1ccc(-c3ccccc3Cl)o1)CC2 (stereo not given) -0.694%
Cc1ccc(SCCN2CCC(NC(=O)OCc3ccccc3)CCC2=O)cc1 (stereo not given) 6.47%
c1cncc(OC2CCN(Cc3ccc4c(c3)CN(Cc3ccc5c(c3)CCO5)CCO4)CC2)c1 8.91%
COc1ccc(Nc2ncc3nc(-c4cccs4)c(=O)n(Cc4cccc(OC)c4)c3n2)cc1 20.1%
COC(=O)C1N[C@@H]([C@@H](NC(=O)COc2ccccc2)C(=O)NC2CC2)SC1(C)C (stereo not given in full) 2.3%
Cc1cccc(CNC(=O)c2cnn(-c3nccc(-c4ccccc4F)n3)c2C)n1 18.3%
OCCN1CCN(Cc2ccc3c(c2)CN(Cc2cc4ccccc4o2)CCO3)CC1 14.7%
C=C1C(=O)O[C@@H]2C3OC3(C)CC/C=C(\C)CC[C@@H]12 (stereo not given in full) 9.55%
CCOC(=O)COc1ccc2c(C)c(CCN(CC)CC)c(=O)oc2c1 36.3%
O[C@@H]([C@H](O)[C@H](O)CBr)[C@H](O)CBr -12.8%
C#CCN(Cc1ccc(OC)cc1)S(=O)(=O)C=C -2.31%
CCCS(=O)(=O)NCc1c(C)ncc2c1CCN(C(=O)/C=C/c1cccc(Cl)c1)C2 7.71%
COc1cc(C(O)CO)ccc1O (stereo not given) 23.4% [at 75.8 µM]
CC[C@H](C)[C@H](N)C(=O)O 13.9%
O=C(c1ccncc1)N1CCC2(CC1)CCN(c1ccc(-c3ccccc3)cc1)CC2 33.7%
CC(=O)SC[C@@H](C)C(=O)N1CCC[C@H]1C(=O)N[C@@H](Cc1ccccc1)C(=O)O 22.2%
NC[C@@H]1O[C@H](C23CC4CC(CC(C4)C2)C3)Cc2c1ccc(O)c2O
c1ccc2c(N3CCCCCC3)nc(CN3CCCCC3c3nccs3)nc2c1 (stereo not given) 11.8%
Cc1cnc2ccc3ccccc3c2c1C 13.4%
Cn1cccc1C(=O)N1CCC[C@@]2(CCN(Cc3nccs3)C2)C1 13.6%
NC(=O)[C@@H]1CSSCCC(=O)N[C@@H](CCCCN=C(N)N)C(=O)NCC(=O)N[C@@H](CC(=O)O)C(=O)N[C@@H](Cc2c[nH]c3ccccc23)C(=O)N2CCC[C@H]2C(=O)N1 ([Mpa][hArg]GDWPC-NH2; disulfide 1-7) 8.87%
CCNC(=O)[C@@H]1CCCN1C(=O)[C@H](CCCN=C(N)N)NC(=O)[C@H](CC(C)C)NC(=O)[C@@H](Cc1c[nH]c2ccccc12)NC(=O)[C@H](Cc1ccc(O)cc1)NC(=O)[C@H](CO)NC(=O)[C@H](Cc1c[nH]c2ccccc12)NC(=O)[C@H](Cc1cnc[nH]1)NC(=O)[C@@H]1CCC(=O)N1 14.9%
NCCCCN
COC(=O)c1ccc(C(=O)N2CCc3c(C(=O)NC(C)c4ccco4)c(OC)cc(=O)n3CC2)cc1 (stereo not given) 5.93%
CN(Cc1ccc(C(C)(C)C)cc1)Cc1cccc2ccccc12
COc1ccc2[nH]cc(CCNc3ncncc3-c3cccc(NS(C)(=O)=O)c3)c2c1 -13.3%
COc1cccc(Nc2ncc3nc(CCc4ccccc4)c(=O)n(CCC#N)c3n2)c1 11.1%
Cc1cccnc1-c1cccc2c1OC(CNC(=O)/C=C/c1cccs1)C2 (stereo not given) -6.14%
N=C(CC(O)COc1ccccc1-c1ccccc1)N1CCCCC1 (stereo not given) 13.8%
CN(C)c1ncc2ncc(=O)n(CCc3ccccc3)c2n1 6.75%
COc1ccc(CNc2nc(-c3ccccc3OC)nc3ccccc23)c(OC)c1 -2.83%
